From PubChem BioAssay AID624417 (National Center for Advancing Translational Sciences (NCATS), 2012)
Screen size: about 410,000 compounds; about 6,400 (1.6%) were called active. The shares of active, inactive and inconclusive entries below differ from those in the screen. The call rests on the fitted dose curve; in most records, active means well fitted inhibition curve with a large enough effect; inconclusive means small, poorly fitted or top-dose-only effect; inactive means no such curve, though single readings can be large or run the other way. No potency is given beside an inconclusive call; the fits are too rough.

Target: Glucagon-like peptide 1 receptor (Homo sapiens) (UniProt P43220)
Chain of UniProt P43220 (P43220 whole entry, looked up): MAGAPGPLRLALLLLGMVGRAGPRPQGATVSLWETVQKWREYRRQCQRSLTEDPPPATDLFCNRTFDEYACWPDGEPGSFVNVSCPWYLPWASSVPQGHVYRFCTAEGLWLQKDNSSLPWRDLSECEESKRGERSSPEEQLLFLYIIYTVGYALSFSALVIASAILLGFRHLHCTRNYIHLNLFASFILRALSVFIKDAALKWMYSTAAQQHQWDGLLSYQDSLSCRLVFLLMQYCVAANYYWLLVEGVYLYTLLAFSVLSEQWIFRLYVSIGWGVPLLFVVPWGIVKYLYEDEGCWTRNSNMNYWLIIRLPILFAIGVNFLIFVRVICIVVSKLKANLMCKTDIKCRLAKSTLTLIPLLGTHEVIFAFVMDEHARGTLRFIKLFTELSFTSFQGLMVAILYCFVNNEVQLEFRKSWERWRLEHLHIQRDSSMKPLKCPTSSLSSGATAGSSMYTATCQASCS
Test: qHTS of GLP-1 Receptor Inverse Agonists (Inhibition Mode); further: nearly all actives have a fitted effect of over 55% in size
Details: HEK293 GLP-1R CRE-luciferase, luminescence, 24 h, GLP-1R form is constitutively active; activity change, negative = inhibition: at 38.3 µM (top of the series) unless noted
How it was run: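 Luminescence readout: a drop in cAMP-driven luciferase signal flags inverse agonism at a constitutively active GLP-1R stably expressed in HEK293. Compound exposure lasted 24 hr at 37 deg C, 5% CO2.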
On the % scale 0 is the no-effect control and ±100 the full control effect; potency means the concentration at half of the fitted maximal effect; tags describe the fitted curve by direction and shape.

SMILES | Potency | activity change, negative = inhibition
CCCCCCCCCC(=O)N[C@@H]1c2cc(OC)c(OC)cc2C[C@H]1O | inconclusive [inhibitor, partial curve, poor fit] | –
O=C(CSCc1cnn(-c2ccccc2)c1-n1cccc1)N1CCN(Cc2ccccc2)CC1 | inconclusive [inhibitor, single point] | –
Cc1ccc(CN2CCC(C)(Oc3cccc(Cl)c3)C2)cc1 (stereo not given) | inconclusive [inhibitor, partial curve, poor fit] | –
NNC(=S)NC1CCCCCCCCCCC1 | inconclusive [inhibitor, partial curve, poor fit] | –
CN(CCc1ccccc1)C(=O)c1ccc(NC(=O)Cc2ccc(NC(=O)C3CCN(C(=O)CCc4ccccc4)CC3)cc2)cc1 | inconclusive [inhibitor, full curve] | –
COc1ccc(C(C)=O)cc1CSc1nnc(Nc2ccc(C)cc2C)s1 | inconclusive [inhibitor, partial curve, poor fit] | –
COc1ccc(OCCN2CCC(C(=O)NC(c3ccc(Cl)cc3)c3cccnc3)CC2)cc1 (stereo not given) | inconclusive [inhibitor, single point] | –
CCCn1cc(S(=O)(=O)c2cccc(Cl)c2)c(=O)c2cc(F)c(N3CCCC3)cc21 | – | inactive: 3.59%
CCC(C)N1C(=S)SC(C)(C)C1N(O)C(=O)NC1CCCCC1 (stereo not given) | inconclusive [inhibitor, partial curve] | –
O=[N+]([O-])c1cccc(OCCN2CCC(Cc3ccccc3)CC2)c1 | inconclusive [inhibitor, partial curve, poor fit] | –
COc1ccccc1N1CCN(/N=C/C(Cl)=C/c2ccccc2)CC1 | inconclusive [inhibitor, single point] | –
CCCOP(=O)(c1ccc(N(C)C)cc1)C(O)c1ccc(Cl)cc1 (stereo not given) | – | inconclusive: -35.1% [inhibitor]
CN(CC(=O)Nc1ccccc1Sc1ccccc1)C1CCCCC1 | inconclusive [inhibitor, partial curve, poor fit] | –
CCCCOc1ccc(S(=O)(=O)N2CCCCCC2)cc1 | inconclusive [inhibitor, partial curve, poor fit] | –
CCNC(=O)c1cc2ccccc2o1 | – | inactive: 0%
Cn1cnc(S(=O)(=O)N2CCC(C(=O)Nc3ccc(Cl)c(C(F)(F)F)c3)CC2)c1 | inconclusive [inhibitor, partial curve, poor fit] | –
COc1ccc2sc(N(CCCN(C)C)C(=O)c3ccc(S(=O)(=O)N4CCCC4)cc3)nc2c1 | inconclusive [inhibitor, partial curve, poor fit] | –
COc1cc(NC(=S)N2CCN(S(=O)(=O)c3ccc(C)cc3)CC2)cc(OC)c1 | inconclusive [inhibitor, partial curve, poor fit] | –
CCCc1nc2ccc(NC(=O)c3ccco3)cc2c(=O)n1Cc1ccc(Cl)cc1 | inconclusive [inhibitor, partial curve] | –
COc1cc(CNCCCN2CCOCC2)cc(Cl)c1OCC(=O)NC(C)(C)C | inconclusive [inhibitor, partial curve, poor fit] | –
COc1cccc(N2CC(C)Cn3c2nc2c3c(=O)n(CCN3CCOCC3)c(=O)n2C)c1 (stereo not given) | – | inactive: -2.73%
Cc1nn(CCC(=O)Nc2ccccc2Br)c(=O)c2nn(-c3ccccc3)c(C)c12 | – | inactive: -4.29%

SMILES | Potency | activity change, negative = inhibition
COCCCNc1nc(SCc2ccccc2)nc2sc3c(c12)CCC3 | – | inactive: -18.4%
C/C(=C\C(=O)c1ccc(Cl)cc1Cl)N(C)C | inconclusive [inhibitor, partial curve, poor fit] | –
CCc1ccc(Nc2ncnc3nc[nH]c23)cc1 | – | inactive: -14.8%
C=CCNC(=O)C(=O)NCC(c1ccc2c(c1)OCO2)N1CCN(c2ccc(F)cc2)CC1 (stereo not given) | inconclusive [inhibitor, partial curve] | –
CN1CCc2c(sc3c2C(=O)NC(c2ccc4c(c2)OCO4)N3)C1 (stereo not given) | – | inactive: 6.15%
C/C(=N\Nc1nc(C)cc(-c2ccccc2)n1)c1ccc(O)cc1 | – | inactive: -15.7%
CC(C)(C)Nc1nc(Cl)nc(NCc2ccccc2)n1 | inconclusive [inhibitor, single point] | –
O=C(CCNC(=O)c1ccc(Br)cc1)Nc1ccccc1N1CCOCC1 | inconclusive [inhibitor, full curve, poor fit] | –
COCc1cc(Sc2ccc(OC)cc2)nc(-c2ccccc2)n1 | inconclusive [inhibitor, single point] | –
CCCCOc1cccc(C(=O)NNC(=S)NC2CCCCC2)c1 | inconclusive [inhibitor, partial curve, poor fit] | –
COc1ccccc1-n1c(=S)[nH]c2c(sc(=S)n2-c2ccccc2C)c1=O | inconclusive [inhibitor, full curve] | –
O=C(NCCCc1ccccn1)C1CCC(=O)N(Cc2cccc(F)c2)C1 (stereo not given) | inconclusive [inhibitor, full curve] | –
CN(CCOC(=O)c1cccc(F)c1)Cc1ccccc1 | inconclusive [inhibitor, single point] | –
CC(=O)NC(CCS(C)(=O)=O)C(=O)Nc1cc(Cl)ccc1Cl (stereo not given) | – | inactive: -1.41%
CC(C)(C)c1ccc(C(=O)NC(Cc2c[nH]c3ccccc23)C(=O)OCC(=O)c2ccc(Br)cc2)cc1 (stereo not given) | inconclusive [inhibitor, single point] | –
Cc1ccc(Nc2nc(Nc3ccc(C)cc3)nc(SC3=NCCS3)n2)cc1 | inconclusive [inhibitor, single point] | –
Cc1ccc(CN2CCN(C(=O)CCc3ccccc3)CC2)cc1 | inconclusive [inhibitor, partial curve, poor fit] | –
CC(C)N(Cc1nc(-c2ccc(Cl)cc2)no1)C(=O)c1ccco1 | inconclusive [inhibitor, single point] | –
CCCc1nc2scc(-c3ccccc3)c2c(=O)n1N | inconclusive [inhibitor, partial curve, poor fit] | –
Nc1nnc(CSc2ccc(Cl)cc2)s1 | – | inactive: -0.184%
CCCCn1nnnc1C(c1cc2ccccc2o1)N1CCN(C/C=C/c2ccccc2)CC1 (stereo not given) | inconclusive [inhibitor, single point] | –
CC(C)(C)c1cc(-c2ccco2)c(C#N)c(SCC#N)n1 | inconclusive [inhibitor, single point] | –

SMILES | Potency | activity change, negative = inhibition
CCOC(=O)c1c(NC(=O)CN2C(=O)NC3(CCCCCC3)C2=O)sc(C)c1-c1ccc(C)cc1 | inconclusive [inhibitor, full curve, poor fit] | –
CCc1ccc(NC(=O)CC2S/C(=N/N=C3CCCCCC3)NC2=O)cc1 (stereo not given) | inconclusive [inhibitor, partial curve, poor fit] | –
Cc1cc(C)c2cc(C#N)c(SCC(=O)NCc3ccco3)nc2c1 | – | inactive: -1.6%
Cc1ccccc1C(=O)N1CCC2CC1c1cc(-c3ccc(F)cc3)ccc12 (stereo not given) | inconclusive [inhibitor, partial curve, poor fit] | –
O=C(CCS(=O)(=O)c1cc(Br)cc2c1N(C(=O)C1CC1)CC2)N1CCN(c2cccc(C(F)(F)F)c2)CC1 | – | inactive: 14.9%
O=C(Cn1c(=O)n(Cc2ccc(C(=O)NCc3ccc4c(c3)OCO4)cc2)c(=O)c2ccccc21)Nc1ccccc1F | – | inactive: 23.1%
Cc1ccc(CSc2nc3ccncc3n2Cc2nc(-c3ccccc3C)oc2C)cc1 | inconclusive [inhibitor, partial curve, poor fit] | –
O=C(N/N=C/c1cccs1)c1[nH]ncc1Br | – | inactive: -2.25%
O=C(CCc1ccccc1)Nc1ccc(N2CCCCC2)cc1 | – | inactive: -13%
NS(=O)(=O)c1ccc(CNC(=O)c2cc(-c3cccnc3)nc3ccccc23)cc1 | inconclusive [inhibitor, full curve] | –
CN(C)CCCNc1nc2cc(-c3cccc(Cl)c3)sc2c(=O)n1C | inconclusive [inhibitor, partial curve] | –
C=CCn1c(NCc2cc(C)ccc2O)nc2ccccc21 | inconclusive [inhibitor, partial curve, poor fit] | –
COC(=O)c1cc(=O)n(CCc2ccccc2F)c(=Nc2ccc(F)c(Cl)c2)s1 | inconclusive [inhibitor, full curve, poor fit] | –
O=C(CN1C(=O)N/C(=C\c2ccccc2OCc2ccc(C(=O)O)cc2)C1=O)Nc1ccccc1F | – | inactive: 10.9%
COc1ccc(CNC(=O)c2cccn2-c2nnc(N3CCCCC3)s2)c(OC)c1 | – | inactive: 6.31%
Cc1ccccc1OCc1nnc(SCC(=O)NC2CCCCC2)o1 | inconclusive [inhibitor, single point] | –
CCCCNC(=S)N/N=C/c1cccc(OCC)c1O | inconclusive [inhibitor, full curve, poor fit] | –
COc1cc2c(cc1OC)C(c1cccc([N+](=O)[O-])c1)N(C(=O)c1ccc(F)cc1)CC2 (stereo not given) | inconclusive [inhibitor, single point] | –
CCOC(=O)N1CCC(NC(=O)C2CCCN(Cc3nc(-c4cccc(C)c4)oc3C)C2)CC1 (stereo not given) | inconclusive [inhibitor, partial curve, poor fit] | –
C=CCNC(=O)COC(=O)c1ccc(Cl)c(S(N)(=O)=O)c1 | inconclusive [inhibitor, single point] | –
O=C(Cc1cccc2ccccc12)N/N=C1\CCCc2ccccc21 | inconclusive [inhibitor, full curve, poor fit] | –
